Results taken from a collection of fitness landscapes (doi:10.1016/j.celrep.2020.107928).
In all, about 81,000 sequences were measured (“one-hybrid fitness for binding parS DNA”: median about -0.17, highest 2% from about 0.51 on). The list shows a part of the results.

B1: Caulobacter ParB omega fusion; a variant is named by its letters at X, in order, B8GW30 (parent)
chain: MESVVVGEPGMSEGRRGLGRGLSALLGEVDAAPAQAPGEQLGGSREAPIEILQRNPDQPRRTFREEDLEDLSNSIREKGVLQPILVRPSPDTAGEYQIVAGERAWRAAQRAGLKTVPIMVRELDDLAVLEIGIIENVQRADLNVLEEALSYKVLMEKFERTQENIAQTIGKSXSHVANXMRLLXLPDEVQSYLVSGELTAXHARAIAAAADPVALAKQIIEGGLSVRETEALARKAPNLSAGKSKGGRPPRVKDTDTQALESDLSSVLGLDVSIDHRGSTGTLTITYATLEQLDDLCNRLTRGI

Variants of: B1
Assay: one-hybrid fitness for binding parS DNA (scaled: cognate 1, non-cognate 0); higher = stronger binding
Details: with parS DNA site
Procedure, shortened: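 Bacterial one-hybrid selection in E. coli USO rpoZ- hisB- pyrF- with a HIS3 reporter carrying the site 19 bp from the promoter, screening Caulobacter ParB libraries with four specificity codons randomised (NNS). Cells grew 48 hours at 37°C on M9-minus-histidine plus 0.1 mM IPTG and 5 mM 3-AT. Plasmids before and after selection were Illumina-sequenced, three replicate libraries pooled, and variants under 10 reads dropped. Fitness is the log change in variant-to-wild-type read ratio, rescaled to cognate 1, non-cognate 0.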

Variant | one-hybrid fitness for binding parS DNA
TFPM | ≤ 0.2
HAMN | ≤ 0.2
SIPV | ≤ 0.2
RCKR | ≤ 0.2
TLAT | ≤ 0.2
QYPK | ≤ 0.2
QMAL | ≤ 0.2
ALND | ≤ 0.2
VLKH | ≤ 0.2
VQSE | ≤ 0.2
WELR | ≤ 0.2
VQSW | ≤ 0.2
PLRI | ≤ 0.2
MKRI | ≤ 0.2
KPNV | ≤ 0.2
AMLV | ≤ 0.2
LARF | ≤ 0.2
AKDL | ≤ 0.2
HRLT | ≤ 0.2
EGGC | ≤ 0.2
KHYG | ≤ 0.2
ETAE | ≤ 0.2
ACHE | ≤ 0.2
PLLV | ≤ 0.2
NGVC | ≤ 0.2

Variant | one-hybrid fitness for binding parS DNA
KSSE | ≤ 0.2
CPTA | ≤ 0.2
YIGT | ≤ 0.2
RCIL | ≤ 0.2
CYLA | ≤ 0.2
GLIT | ≤ 0.2
TILD | ≤ 0.2
EVTV | ≤ 0.2
PDNL | ≤ 0.2
SAVA | ≤ 0.2
QYKC | ≤ 0.2
WACS | ≤ 0.2
HHNI | ≤ 0.2
VVGS | ≤ 0.2
NEKR | ≤ 0.2
LSKS | ≤ 0.2
NAGM | ≤ 0.2
KRLL | ≤ 0.2
HSPW | ≤ 0.2
SRVA | ≤ 0.2
WFTG | ≤ 0.2
KYFS | ≤ 0.2
RMPE | ≤ 0.2
PAHS | ≤ 0.2
EPST | ≤ 0.2

Variant | one-hybrid fitness for binding parS DNA
KYER | ≤ 0.2
TSET | ≤ 0.2
NQNP | ≤ 0.2
GNSA | ≤ 0.2
VGNS | ≤ 0.2
PSAP | ≤ 0.2
AHEG | ≤ 0.2
GQMS | ≤ 0.2
DITC | ≤ 0.2
VWSV | ≤ 0.2
NLNA | ≤ 0.2
WEAR | ≤ 0.2
NSIG | ≤ 0.2
VEAR | ≤ 0.2
TTDS | ≤ 0.2
GLSI | ≤ 0.2
KRWY | ≤ 0.2
PGLL | ≤ 0.2
LCER | ≤ 0.2
PGQT | ≤ 0.2
LQNL | ≤ 0.2
HFEC | ≤ 0.2
MDAR | ≤ 0.2
SIMK | ≤ 0.2
HHIF | ≤ 0.2

Variant | one-hybrid fitness for binding parS DNA
DETT | ≤ 0.2
KAPF | ≤ 0.2
LNQL | ≤ 0.2
QSRK | ≤ 0.2
WAYT | ≤ 0.2
TQIR | ≤ 0.2
LPKV | ≤ 0.2
GVSH | ≤ 0.2
GGPR | ≤ 0.2
QKAP | ≤ 0.2
ALHA | ≤ 0.2
MVMR | ≤ 0.2
AMSV | ≤ 0.2
ICRN | ≤ 0.2
DVLR | ≤ 0.2
RSNH | 0.203
GQHT | ≤ 0.2
MPFY | ≤ 0.2
DESW | ≤ 0.2
PFFT | ≤ 0.2
MDHR | ≤ 0.2
RMED | ≤ 0.2
FNKT | ≤ 0.2
NQAG | ≤ 0.2
TAKA | ≤ 0.2

Variant | one-hybrid fitness for binding parS DNA
RHLD | ≤ 0.2
RWRA | 0.474
GSAP | ≤ 0.2
YIKR | ≤ 0.2
RQHK | ≤ 0.2
FCHW | ≤ 0.2
VTHP | ≤ 0.2
GCQP | ≤ 0.2
QAKT | ≤ 0.2
WHRL | ≤ 0.2
CICG | ≤ 0.2
KFLR | ≤ 0.2
QPDH | ≤ 0.2
GFSG | ≤ 0.2
QRIV | ≤ 0.2
KPMS | ≤ 0.2
PCAW | ≤ 0.2
QQCA | ≤ 0.2
KPDM | ≤ 0.2
VPKK | ≤ 0.2
RCWA | 0.68
RWNH | ≤ 0.2
PTEG | ≤ 0.2
QREC | ≤ 0.2
HAKH | ≤ 0.2

Variant | one-hybrid fitness for binding parS DNA
LHVV | ≤ 0.2
KRKS | ≤ 0.2
NTWW | ≤ 0.2
LHVM | ≤ 0.2
PQTA | ≤ 0.2
QLFK | ≤ 0.2
QYQL | ≤ 0.2
MPLM | ≤ 0.2
RTSN | 0.422
HWDG | ≤ 0.2
SHAV | ≤ 0.2
HMWT | ≤ 0.2
STPR | ≤ 0.2
PRTN | ≤ 0.2
FNKV | ≤ 0.2
SCEG | ≤ 0.2
PKVP | ≤ 0.2
APLL | ≤ 0.2
VYCS | ≤ 0.2
ATQN | ≤ 0.2
HIDQ | ≤ 0.2
ALTQ | ≤ 0.2
HNLC | ≤ 0.2
LATD | ≤ 0.2
PSCS | ≤ 0.2

Variant | one-hybrid fitness for binding parS DNA
RSYV | ≤ 0.2
PVMP | ≤ 0.2
HAPA | ≤ 0.2
DQTE | ≤ 0.2
MLGC | ≤ 0.2
PSQF | ≤ 0.2
YLDG | ≤ 0.2
SNER | ≤ 0.2
TLTQ | ≤ 0.2
TSFV | ≤ 0.2
LKGC | ≤ 0.2
QQGT | ≤ 0.2
TTQR | ≤ 0.2
CTGG | ≤ 0.2
RCFY | 0.443
VVMF | ≤ 0.2
VHNW | ≤ 0.2
EMCG | ≤ 0.2
YVYP | ≤ 0.2
GIAA | ≤ 0.2
HWRG | ≤ 0.2
FWNR | ≤ 0.2
LTWC | ≤ 0.2
PQCG | ≤ 0.2
LAFY | ≤ 0.2

Variant | one-hybrid fitness for binding parS DNA
RMYA | 0.651
ATTD | ≤ 0.2
PYGW | ≤ 0.2
RLWH | 0.3
SLVY | ≤ 0.2
ISMV | ≤ 0.2
MAIV | ≤ 0.2
MHAP | ≤ 0.2
QSIE | ≤ 0.2
AAEE | ≤ 0.2
PRQD | ≤ 0.2
CAMS | ≤ 0.2
YDGS | ≤ 0.2
ADPG | ≤ 0.2
MCTS | ≤ 0.2
HCWY | ≤ 0.2
GSLS | ≤ 0.2
NAPH | ≤ 0.2
KTTP | ≤ 0.2
MASS | ≤ 0.2
